US9096871B2, “Variant CBH I polypeptides with reduced product inhibition” (BP Corporation North America Inc., priority 2010, dated 2015)

Tests used:
[1] = Bagasse assay in the absence and presence of β-glucosidase (BG); assay type: biochemical
Protocol: Bagasse Assay: This assay measures the activity of CBH I on bagasse, a lignocellulosic substrate. Reactions were run in 10 ml vials with 5% dilute acid pretreated bagasse (250 mg solids per 5 ml reaction). Each reaction contained 4 mg CBH I enzyme/g solids, 200 mM MES pH 6, kanamycin, and chloramphenicol. Reactions were incubated at 35° C. in hybridization incubators (Robbins Scientific), rotating at 20 RPM. Time points were taken by transferring a sample of homogenous slurry (150 μl) into a 96-well deep well plate and quenching the reaction with stop buffer (450 μl of 500 mM sodium carbonate, pH 10). Time point measurements were taken every 24 hours for 72 hours.
Cellobiose Tolerance Assays (or Cellobiose Inhibition Assays): Tolerance to cellobiose (or inhibition caused by cellobiose) was tested in two ways in the CBH I assays. A direct-dose tolerance method can be applied to all of the CBH I assays (i.e., 4-MUL, PASC, and/or bagasse assays), and entails the exogenous addition of a known amount of cellobiose into assay mixtures. A different indirect method entails the addition of an excess amount of β-glucosidase (BG) to PASC and bagasse assays (typically, 1 mg β-glucosidase/g solids loaded). BG will enzymatically hydrolyze the cellobiose generated during these assays; therefore, CBH I activity in the presence of BG can be taken as a measure of activity in the absence of cellobiose. […]

[2] = Library screening of BD29555 variants using the 4-MUL assay with and without cellobiose, with gluconolactone; assay type: biochemical
Protocol: 4-Methylumbelliferyl Lactoside (4-MUL) Assay: This assay measures the activity of CBH I on the fluorogenic substrate 4-MUL (also known as MUL). Assays were run in a costar 96-well black bottom plate, where reactions were initiated by the addition of 4-MUL to enzyme in buffer (2 mM 4-MUL in 200 mM MES pH 6). Enzymatic rates were monitored by fluorescent readouts over five minutes on a SPECTRAMAX™ plate reader (ex/em 365/450 nm). Data in the linear range was used to calculate initial rates (Vo).
Cellobiose Tolerance Assays (or Cellobiose Inhibition Assays): Tolerance to cellobiose (or inhibition caused by cellobiose) was tested in two ways in the CBH I assays. A direct-dose tolerance method can be applied to all of the CBH I assays (i.e., 4-MUL, PASC, and/or bagasse assays), and entails the exogenous addition of a known amount of cellobiose into assay mixtures. […]
The wild type CBH I polypeptide BD29555 was mutagenized to identify variants with improved product tolerance. […] This product-release-site library was designed based on residues directly interacting with the cellobiose product in an attempt to identify variants with weakened interactions with cellobiose from which the product would be released more readily than the wild type enzyme. […]

B1: R273K/R422K: BD29555 CBH I with substitutions R273K/R422K (corresponding to R268K/R411K of T. reesei CBH I); SEQ ID NO:301/302 (protein)
chain: QQIGTYTAETHPSLSWSTCKSGGSCTTNSGAITLDANWRWVHGVNTSTNCYTGNTWNTAICDTDASCAQDCALDGADYSGTYGITTSGNSLRLNFVTGSNVGSRTYLMADNTHYQIFDLLNQEFTFTVDVSHLPCGLNGALYFVTMDADGGVSKYPNNKAGAQYGVGYCDSQCPRDLKFIAGQANVEGWTPSSNNANTGLGNHGACCAELDIWEANSISEALTPHPCDTPGLSVCTTDACGGTYSSDKYAGTCDPDGCDFNPYRLGVTDFYGSGKTVDTTKPITVVTQFVTDDGTSTGTLSEIRRYYVQNGVVIPQPSSKISGVSGNVINSDFCDAEISTFGETASFSKHGGLAKMGAGMEAGMVLVMSLWDDYSVNMLWLDSTYPTNATGTPGAAKGSCPTTSGDPKTVESQSGSSYVTFSDIRVGPFNSTFSGGSSTGGSSTTTASGTTTTKASSTSTSSTSTGTGVAAHWGQCGGQGWTGPTTCASGTTCTVVNPYYSQCL
modifications: source: /note="Description of Unknown: Variant CBH I polypeptide sequence"
sensitivity to the presence or accumulation of cellobiose compared with wild type ([1]; bagasse assay, absence vs. presence of BG): less sensitive to the presence of cellobiose than the wild type | Tolerance to cellobiose accumulation % Activity in Bagasse Assay (−/+BG) ([1]; variants of BD29555, [(Activity without BG)/(Activity with BG)]*100, conversion of glucan after 72 hours): 84% | cellobiose tolerance in library screen ([2]; 250 mg/L cellobiose): cellobiose tolerance at 250 mg/L | activity among the library variants ([2]; 60-member BD29555 library, 4-MUL assay): greatest activity among the variants
